Out of some 310,000 compounds screened, about 14,000 (4.5%) showed an effect of 50% or more. The effect is printed as a negative number. This is one part of the list.
What follows are compounds tested against human ether-à-go-go-related gene (hERG) potassium channel (human, UniProt Q12809) (assay: primary screen, population patch clamp on CHO cells stably expressing hERG).
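Further: peak tail current of the secondary pulse compared with the same well before compound.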

Chain of human ether-à-go-go-related gene (hERG) potassium channel (Q12809 whole entry, looked up): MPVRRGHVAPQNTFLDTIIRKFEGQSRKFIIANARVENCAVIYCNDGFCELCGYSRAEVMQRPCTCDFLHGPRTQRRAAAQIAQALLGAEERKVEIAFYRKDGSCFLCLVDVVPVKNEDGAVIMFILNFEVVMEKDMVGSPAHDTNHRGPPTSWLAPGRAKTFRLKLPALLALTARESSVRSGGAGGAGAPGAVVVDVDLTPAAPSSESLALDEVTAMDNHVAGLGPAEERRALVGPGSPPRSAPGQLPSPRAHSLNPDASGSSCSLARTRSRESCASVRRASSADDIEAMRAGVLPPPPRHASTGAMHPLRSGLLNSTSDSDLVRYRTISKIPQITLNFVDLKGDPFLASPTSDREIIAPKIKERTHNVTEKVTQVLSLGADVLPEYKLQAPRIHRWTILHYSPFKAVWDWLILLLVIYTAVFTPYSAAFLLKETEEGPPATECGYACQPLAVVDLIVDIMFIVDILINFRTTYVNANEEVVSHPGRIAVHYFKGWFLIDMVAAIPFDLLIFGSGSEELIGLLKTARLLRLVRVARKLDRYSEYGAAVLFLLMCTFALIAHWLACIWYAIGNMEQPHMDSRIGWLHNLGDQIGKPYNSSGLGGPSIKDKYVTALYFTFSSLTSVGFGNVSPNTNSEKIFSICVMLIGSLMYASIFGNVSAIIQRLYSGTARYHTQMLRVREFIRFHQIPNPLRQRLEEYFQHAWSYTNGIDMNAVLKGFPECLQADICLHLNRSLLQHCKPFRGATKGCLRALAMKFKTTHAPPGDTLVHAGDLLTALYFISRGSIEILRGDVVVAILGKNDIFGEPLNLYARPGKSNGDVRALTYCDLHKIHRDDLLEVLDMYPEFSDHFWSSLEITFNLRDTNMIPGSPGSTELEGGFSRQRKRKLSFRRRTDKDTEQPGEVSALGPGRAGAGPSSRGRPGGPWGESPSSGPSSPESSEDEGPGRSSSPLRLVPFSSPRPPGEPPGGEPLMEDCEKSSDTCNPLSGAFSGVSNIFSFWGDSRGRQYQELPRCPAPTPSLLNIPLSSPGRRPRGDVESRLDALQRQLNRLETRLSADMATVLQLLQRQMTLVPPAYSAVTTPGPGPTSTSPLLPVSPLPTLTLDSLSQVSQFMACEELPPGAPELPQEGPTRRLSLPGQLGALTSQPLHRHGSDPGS

Compound | hERG current change (%, negative = inhibition) at 10uM
Cc1n[nH]c(C)c1S(=O)(=O)N(C)Cc1ccco1 | 2.13%
O=C(Cc1ccccc1[N+](=O)[O-])NCCSCc1c(F)cccc1Cl | 20.6%
CCOCCn1c(SCC)nc2c1c(=O)[nH]c(=O)n2C | -1.3%
Cc1nnc(C)n1/N=C/c1cccs1 | 13.4%
CNc1cc(C(F)(F)F)nc(-c2ccccn2)n1 | 20.5%
CC(=O)c1ccc(N2CCN(S(=O)(=O)c3cn(C)cn3)CC2)cc1 | 19.6%
O=[N+]([O-])c1ccc(/C=N/Nc2nc(N3CCCC3)nc(N3CCCC3)n2)o1 | 1.41%
CCN(CC)C(=O)Oc1ccc(NC(=O)N2CCOCC2)cc1 | 4.02%
COCc1cc(C)nc2sc(C(=O)Nc3nccs3)c(N)c12 | -6%
COc1ccc(-c2c(C)oc3c(CN4CCCCC4C)c(O)ccc3c2=O)cc1 (stereo not drawn) | -16.6%
CC(C)S(=O)(=O)c1csc(NC(=O)Nc2ccc(Cl)cc2)c1Cl | -41.5%
O=C(NC(=S)N1CCCCC1)C12CC3CC(CC(C3)C1)C2 | 20.7%
CCOC(=O)N1CCC(NC(=O)CCCN2C(=O)CSc3ncccc32)CC1 | 9.25%
O=C(Nc1cccc(C(=O)O)c1)Nc1ccc2c(c1)OCO2 | 16.4%
Cc1ccc(N2C(=O)C(Cl)=C(Nc3c(C)n(C)n(-c4ccccc4)c3=O)C2=O)cc1 | -17.9%
Clc1ccc(SCCCCN2CCNCC2)cc1.O=C(O)C(=O)O | -48.7%
CCOC(=O)Nc1ccc2c(c1)N(C(=O)CN1CCN(CCO)CC1)c1ccccc1CC2.Cl | -1.11%
O=C(/C=C/c1ccccc1)Nc1ncn[nH]1 | 14.5%
O=C1N(c2ccccc2)CCN1c1ccccc1 | 31.4%
O=C(Cc1c(F)cccc1Cl)N/N=C/c1cccs1 | 3.71%
COc1ccccc1N1C(=O)S/C(=C\c2cc(C)n(C)c2C)C1=O | 10.9%
C/C(Cl)=C\Cn1c(NCCCn2ccnc2)nc2c1c(=O)n(C)c(=O)n2C | -27.6%
COc1ccc(NC(=S)/N=C(\N)Nc2nc(C)c3ccccc3n2)cc1 | 15.6%

Compound | hERG current change (%, negative = inhibition) at 10uM
CCOC(=O)C1CCN(c2c(NCCCN3CCN(Cc4ccccc4)CC3)c(=O)c2=O)CC1 | 3.6%
CCOc1c2ccc(C(=O)NCc3ccc(C)cc3)cc2nn1CC | 0.876%
Cc1nc(-c2ccc(S(=O)(=O)NCC3CCN(C(=O)OC(C)(C)C)CC3)s2)cs1 | -3.83%
CCn1c(CCC(=O)O)nc2cc(S(=O)(=O)N(C)C)ccc21 | 29.2%
CCOc1ccc(S(=O)(=O)N2CCCC(C(=O)N3CCOCC3)C2)cc1 (stereo not drawn) | -2.04%
CC(=O)Nc1ccc(C2CN(C)CC2C(=O)c2ccc(Cl)cc2)cc1 (stereo not drawn) | -31.8%
CCOC(=O)c1sc2nc(C)cc(-c3ccccc3)c2c1N | -8.6%
Cc1nn(Cc2ccccc2)c(Cl)c1C(=O)Nc1ccc(OC(F)(F)F)cc1 | 28.4%
COc1ccccc1/C=N/n1cnnc1 | 5.92%
CCCN1C(=O)COc2ccc(-c3n[nH]c(=O)c4ccccc34)cc21 | 10.4%
Nc1nnc(SCC(=O)Nc2cc(S(=O)(=O)N3CCOCC3)ccc2Cl)s1 | 13.4%
COC(=O)[C@@H]1C[C@H]1[C@@H](NS(=O)(=O)c1ccccc1)c1ccccc1 | 2.43%
Cc1cccc(N2C(=O)CN=C2Nc2nc(C)cc(C)n2)c1 | -14.4%
COc1ccc(-n2c(CNC(=O)c3cc(OC)c(OC)c(OC)c3)n[nH]c2=S)cc1 | 9.84%
COCC(C)n1c(SCC(=O)N2CCc3ccccc3C2)nc2ccccc2c1=O (stereo not drawn) | -35.7%
CNc1ccccc1C(=O)OCC(=O)c1ccccc1 | -2.57%
CN(CC(=O)Nc1cccc(F)c1)C(=O)c1cccnc1Sc1ccccc1Cl | -17.4%
Cn1ccnc1-c1nnn(-c2ccc(F)cc2)n1 | 3.12%
CCCCn1c(=O)c(C(=O)NCc2ccccc2Cl)c(O)c2ccccc21 | 26.1%
N/C(=N\OC(=O)c1ccccc1Br)c1cccc([N+](=O)[O-])c1 | 3.17%
N#CC1=C(N)OC2=C(C(=O)CCC2)[C@]12C(=O)N(CC(N)=O)c1ccccc12 | 4.73%
CCOC(=O)c1ccc(NC(=O)Nc2cccc(C)n2)cc1 | 22.5%

From article PMC4336329 (PLoS ONE, 2015)
